From PMC4858940
No constants are given. Whether binding was seen depends on the method and setting. For some of these results: In cells and extracts the contact can be indirect. Some binding calls cover weakened binding; strength is not graded here. Tags and fused reporters may be left off the sequences shown.

Amino acid sequences for entries named in this document (tags omitted).
UniProt P0AEZ3: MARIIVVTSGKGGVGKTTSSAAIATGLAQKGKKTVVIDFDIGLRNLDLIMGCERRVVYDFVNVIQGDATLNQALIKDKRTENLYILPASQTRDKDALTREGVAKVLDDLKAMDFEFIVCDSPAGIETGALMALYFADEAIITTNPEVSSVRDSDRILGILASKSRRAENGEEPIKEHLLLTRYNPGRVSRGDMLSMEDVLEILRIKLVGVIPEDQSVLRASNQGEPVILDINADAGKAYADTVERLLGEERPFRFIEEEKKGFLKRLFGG
UniProt P0ABD3: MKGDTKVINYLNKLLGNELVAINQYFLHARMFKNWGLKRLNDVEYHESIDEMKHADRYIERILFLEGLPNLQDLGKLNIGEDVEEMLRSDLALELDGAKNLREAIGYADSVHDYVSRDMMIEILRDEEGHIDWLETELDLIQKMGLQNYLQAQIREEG

B1: D-amino acid dehydrogenase small subunit (bacterial two-hybrid fusion) (enzyme, UniProt P0A6J5 1-432)
chain: MRVVILGSGVVGVASAWYLNQAGHEVTVIDREPGAALETSAANAGQISPGYAAPWAAPGVPLKAIKWMFQRHAPLAVRLDGTQFQLKWMWQMLRNCDTSHYMENKGRMVRLAEYSRDCLKALRAETNIQYEGRQGGTLQLFRTEQQYENATRDIAVLEDAGVPYQLLESSRLAEVEPALAEVAHKLTGGLQLPNDETGDCQLFTQNLARMAEQAGVKFRFNTPVDQLLCDGEQIYGVKCGDEVIKADAYVMAFGSYSTAMLKGIVDIPVYPLKGYSLTIPIAQEDGAPVSTILDETYKIAITRFDNRIRVGGMAEIVGFNTELLQPRRETLEMVVRDLYPRGGHVEQATFWTGLRPMTPDGTPVVGRTRFKNLWLNTGHGTLGWTMACGSGQLLSDLLSGRTPAIPYEDLSVARYSRGFTPSRPGHLHGAHS
B2: GFP-tagged protein lysine acetyltransferase (enzyme, UniProt P76594 1-886)
chain: MSQRGLEALLRPKSIAVIGASMKPNRAGYLMMRNLLAGGFNGPVLPVTPAWKAVLGVLAWPDIASLPFTPDLAVLCTNASRNLALLEELGEKGCKTCIILSAPASQHEDLRACALRHNMRLLGPNSLGLLAPWQGLNASFSPVPIKRGKLAFISQSAAVSNTILDWAQQRKMGFSYFIALGDSLDIDVDELLDYLARDSKTSAILLYLEQLSDARRFVSAARSASRNKPILVIKSGRSPAAQRLLNTTAGMDPAWDAAIQRAGLLRVQDTHELFSAVETLSHMRPLRGDRLMIISNGAAPAALALDALWSRNGKLATLSEETCQKLRDALPEHVAISNPLDLRDDASSEHYIKTLDILLHSQDFDALMVIHSPSAAAPATESAQVLIEAVKHHPRSKYVSLLTNWCGEHSSQEARRLFSEAGLPTYRTPEGTITAFMHMVEYRRNQKQLRETPALPSNLTSNTAEAHLLLQQAIAEGATSLDTHEVQPILQAYGMNTLPTWIASDSTEAVHIAEQIGYPVALKLRSPDIPHKSEVQGVMLYLRTANEVQQAANAIFDRVKMAWPQARVHGLLVQSMANRAGAQELRVVVEHDPVFGPLIMLGEGGVEWRPEDQAVVALPPLNMNLARYLVIQGIKSKKIRARSALRPLDVAGLSQLLVQVSNLIVDCPEIQRLDIHPLLASGSEFTALDVTLDISPFEGDNESRLAVRPYPHQLEEWVELKNGERCLFRPILPEDEPQLQQFISRVTKEDLYYRYFSEINEFTHEDLANMTQIDYDREMAFVAVRRIDQTEEILGVTRAISDPDNIDAEFAVLVRSDLKGLGLGRRLMEKLITYTRDHGLQRLNGITMPNNRGMVALARKLGFNVDIQLEEGIVGLTLNLAQREES
B3: GFP-tagged 6-phosphofructokinase isozyme 1 (enzyme, UniProt P0A796 1-320)
chain: MIKKIGVLTSGGDAPGMNAAIRGVVRSALTEGLEVMGIYDGYLGLYEDRMVQLDRYSVSDMINRGGTFLGSARFPEFRDENIRAVAIENLKKRGIDALVVIGGDGSYMGAMRLTEMGFPCIGLPGTIDNDIKGTDYTIGFFTALSTVVEAIDRLRDTSSSHQRISVVEVMGRYCGDLTLAAAIAGGCEFVVVPEVEFSREDLVNEIKAGIAKGKKHAIVAITEHMCDVDELAHFIEKETGRETRATVLGHIQRGGSPVPYDRILASRMGAYAIDLLLAGYGGRCVGIQNEQLVHHDIIDAIENMKRPFKGDWLDCAKKLY
B4: GFP-tagged putative acid-amine ligase (protein, UniProt P0ADT5 1-386)
chain: MERVSITERPDWREKAHEYGFNFHTMYGEPYWCEDAYYKLTLAQVEKLEEVTAELHQMCLKVVEKVIASDELMTKFRIPKHTWSFVRQSWLTHQPSLYSRLDLAWDGTGEPKLLENNADTPTSLYEAAFFQWIWLEDQLNAGNLPEGSDQFNSLQEKLIDRFVELREQYGFQLLHLTCCRDTVEDRGTIQYLQDCATEAEIATEFLYIDDIGLGEKGQFTDLQDQVISNLFKLYPWEFMLREMFSTKLEDAGVRWLEPAWKSIISNKALLPLLWEMFPNHPNLLPAYFAEDDHPQMEKYVVKPIFSREGANVSIIENGKTIEAAEGPYGEEGMIVQQFHPLPKFGDSYMLIGSWLVNDQPAGIGIREDRALITQDMSRFYPHIFVE
B5: GFP-tagged signal recognition particle receptor (protein, UniProt P10121 1-497)
chain: MAKEKKRGFFSWLGFGQKEQTPEKETEVQNEQPVVEEIVQAQEPVKASEQAVEEQPQAHTEAEAETFAADVVEVTEQVAESEKAQPEAEVVAQPEPVVEETPEPVAIEREELPLPEDVNAEAVSPEEWQAEAETVEIVEAAEEEAAKEEITDEELETALAAEAAEEAVMVVPPAEEEQPVEEIAQEQEKPTKEGFFARLKRSLLKTKENLGSGFISLFRGKKIDDDLFEELEEQLLIADVGVETTRKIITNLTEGASRKQLRDAEALYGLLKEEMGEILAKVDEPLNVEGKAPFVILMVGVNGVGKTTTIGKLARQFEQQGKSVMLAAGDTFRAAAVEQLQVWGQRNNIPVIAQHTGADSASVIFDAIQAAKARNIDVLIADTAGRLQNKSHLMEELKKIVRVMKKLDVEAPHEVMLTIDASTGQNAVSQAKLFHEAVGLTGITLTKLDGTAKGGVIFSVADQFGIPIRYIGVGERIEDLRPFKADDFIEALFARED
B6: GFP-tagged phosphoglycerate kinase (enzyme, UniProt P0A799 1-387)
chain: MSVIKMTDLDLAGKRVFIRADLNVPVKDGKVTSDARIRASLPTIELALKQGAKVMVTSHLGRPTEGEYNEEFSLLPVVNYLKDKLSNPVRLVKDYLDGVDVAEGELVVLENVRFNKGEKKDDETLSKKYAALCDVFVMDAFGTAHRAQASTHGIGKFADVACAGPLLAAELDALGKALKEPARPMVAIVGGSKVSTKLTVLDSLSKIADQLIVGGGIANTFIAAQGHDVGKSLYEADLVDEAKRLLTTCNIPVPSDVRVATEFSETAPATLKSVNDVKADEQILDIGDASAQELAEILKNAKTILWNGPVGVFEFPNFRKGTEIVANAIADSEAFSIAGGGDTLAAIDLFGIADKISYISTGGGAFLEFVEGKVLPAVAMLEERAKK
B7: GFP-tagged probable ubiquinone biosynthesis protein (protein, UniProt P0A6A0 1-546)
chain: MTPGEVRRLYFIIRTFLSYGLDELIPKMRITLPLRLWRYSLFWMPNRHKDKLLGERLRLALQELGPVWIKFGQMLSTRRDLFPPHIADQLALLQDKVAPFDGKLAKQQIEAAMGGLPVEAWFDDFEIKPLASASIAQVHTARLKSNGKEVVIKVIRPDILPVIKADLKLIYRLARWVPRLLPDGRRLRPTEVVREYEKTLIDELNLLRESANAIQLRRNFEDSPMLYIPEVYPDYCSEGMMVMERIYGIPVSDVAALEKNGTNMKLLAERGVQVFFTQVFRDSFFHADMHPGNIFVSYEHPENPKYIGIDCGIVGSLNKEDKRYLAENFIAFFNRDYRKVAELHVDSGWVPPDTNVEEFEFAIRTVCEPIFEKPLAEISFGHVLLNLFNTARRFNMEVQPQLVLLQKTLLYVEGVGRQLYPQLDLWKTAKPFLESWIKDQVGIPALVRAFKEKAPFWVEKMPELPELVYDSLRQGKYLQHSVDKIARELQSNHVRQGQSRYFLGIGATLVLSGTFLLVSRPEWGLMPGWLMAGGLIAWFVGWRKTR
B8: GFP-tagged D-amino acid dehydrogenase small subunit (enzyme, UniProt P0A6J5 1-432)
chain: B1 chain
B9: GFP-tagged universal stress protein E (protein, UniProt P0AAC0 1-316)
chain: MAMYQNMLVVIDPNQDDQPALRRAVYLHQRIGGKIKAFLPIYDFSYEMTTLLSPDERTAMRQGVISQRTAWIHEQAKYYLNAGVPIEIKVVWHNRPFEAIIQEVISGGHDLVLKMAHQHDRLEAVIFTPTDWHLLRKCPSPVWMVKDQPWPEGGKALVAVNLASEEPYHNALNEKLVKETIELAEQVNHTEVHLVGAYPVTPINIAIELPEFDPSVYNDAIRGQHLLAMKALRQKFGINENMTHVEKGLPEEVIPDLAEHLQAGIVVLGTVGRTGISAAFLGNTAEQVIDHLRCDLLVIKPDQYQTPVELDDEEDD

The molecules below were run against MinD (bacterial two-hybrid fusion) (E. coli) (UniProt P0AEZ3) (assay: two-hybrid; bacterial two-hybrid (CyaA T25 and T18 fusions) in E. coli DHP1; cultures spotted on LB plates with 0.5 mM IPTG and X-Gal, 30 °C, colour developed for 18 h; every protein cloned in pT18 and in pT25 for cross-examination).

Row | Molecule | binding
1 | Bacterioferritin (bacterial two-hybrid fusion) (from UniProt P0ABD3 1-158) | binds
2 | B1 | binds

The molecules below were run against T1, MalE-His6-MinC (E. coli) (UniProt P18196) (assay: pull-down; His-tagged MinC, MinD or MinE immobilised on Ni Sepharose resin; mixed with clear lysate holding the GFP-tagged POI, 4 °C, 60 min; 25 mM Tris-Cl pH 8.0, 150 mM KCl, washes with 5 and 30 mM imidazole, elution with 300 mM imidazole; Western blot with anti-GFP and anti-His6; only the target purified).
T1 sequence: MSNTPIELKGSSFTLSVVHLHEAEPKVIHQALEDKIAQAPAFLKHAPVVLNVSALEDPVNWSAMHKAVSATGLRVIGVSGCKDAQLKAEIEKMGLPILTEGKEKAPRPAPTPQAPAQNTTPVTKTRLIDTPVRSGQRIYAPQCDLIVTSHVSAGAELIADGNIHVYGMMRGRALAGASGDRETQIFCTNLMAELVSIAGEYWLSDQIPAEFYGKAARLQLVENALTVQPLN

Row | Molecule | binding
3 | B2 | binds
4 | B3 | binds
5 | B4 | binds
6 | B5 | no binding
7 | B6 | no binding
8 | B7 | no binding

Each molecule was assayed against His6-MinD (E. coli) (UniProt P0AEZ3) in the same assay as above.

Row | Molecule | binding
9 | GFP-tagged bacterioferritin (from UniProt P0ABD3 1-158) | binds
10 | B2 | binds
11 | B8 | binds
12 | B9 | binds
13 | B3 | binds
14 | B5 | no binding
15 | B6 | no binding
16 | B7 | no binding

What follows are molecules tested against MinE-His6 (E. coli) (UniProt P0A734) in the same assay as above.

Row | Molecule | binding
17 | B2 | binds
18 | B9 | binds
19 | B3 | binds
20 | B5 | no binding
21 | B6 | no binding
22 | B7 | no binding
